# Results from PubChem BioAssay AID1963576 (National Center for Advancing Translational Sciences (NCATS), 2024).
# Out of some 46,000 compounds screened, about 60 (0.1%) were called active. Not shown: some 3% with an inconclusive outcome. Calls come from the whole dose curve; as a rule, active = well fitted inhibition curve with a large enough effect; inconclusive = small, poorly fitted or top-dose-only effect; inactive = no such curve, though single readings can be large or run the other way. The list shows a part of the results.
# Test: Primary qHTS assay for Inhibitors of ovarian cancer metastasis using an organotypic tumor microenvironment (TME) model.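 For activity change, negative = inhibition: plate controls were DMSO wells for no effect and tomatine positive control wells for full effect.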 Note: nearly all actives have a fitted effect of over 65% in size.
# Conditions: SKOV3ip1-GFP adhesion/invasion on 3D omental model, fluorescence; series mostly up to 45.8 µM; activity change, negative = inhibition: at the top concentration
# How it was run: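 Primary human omental fibroblast/mesothelial 3D culture pre-formed 48 h. SKOV3ip1-GFP cells added with compounds (0.36-46 umol/L), incubated 2 h RT/16 h 37 C, fixed; GFP cells quantified at 488/509 nm.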
SMILES,"activity change, negative = inhibition",outcome
Cc1ccc(CNC(=O)CN2C(=O)CC(c3ccc(C)c(C)c3)=Nc3ccccc32)cc1,inactive: 2.44%,–
COc1ccc(-c2nc(S(=O)(=O)c3ccc(C)cc3)c(N3CCCCC3)o2)cc1,inactive: -6.04%,–
CCCCN(CC)C(=O)CCCn1c(=O)c2cccn2c2ccccc21,inactive: -0.946%,–
COc1cccc(N2CCN(c3ncnc4c3c(-c3ccccc3)cn4-c3ccc(F)cc3)CC2)c1,inactive: -17.9%,–
O=C(NCc1cccc(Cl)c1)NCc1noc2ccccc12,inactive: 4.41%,–
COc1ccccc1NC(=O)CSc1nc2c(oc3ccccc32)c(=O)n1Cc1ccco1,inactive: 109%,–
Clc1cccc(-n2cc(-c3ccccc3)c3c(NC4CCCC4)ncnc32)c1,–,inactive
Cn1cnc([N+](=O)[O-])c1Sc1ncnc2nc[nH]c12,inactive: 14%,–
COc1ccc(NC(=O)C2CCCN(S(=O)(=O)c3cccc4nonc34)C2)cc1Cl (configuration not stated),inactive: 5.23%,–
Cc1ccc(-c2nnc3c4ccccc4c(C)nn23)cc1NC(=O)c1cccc(Br)c1,inactive: -5.91%,–
Cc1ccc(Cl)cc1N(C)C(=O)C1CCCN(c2ncnc3onc(-c4ccc(F)cc4)c23)C1 (configuration not stated),inactive: -1.87%,–
Cc1ccc(Cn2c(CCNC(=O)C(C)C)nc3ccccc32)cc1,inactive: -5.64%,–
COc1ccc(CNC(=O)CCNS(=O)(=O)c2ccc3c(c2)CCCC(=O)N3)cc1,–,inactive
COc1ccc(-c2nc(SCC(=O)NCc3ccccc3Cl)n[nH]2)cc1,–,inactive
CCOC(=O)CCc1c(C)nc2c(c(C)nn2-c2ccc(C)cc2)c1C,inactive: 44.3%,–
O=C(Cn1nc(-c2ccc(Cl)cc2)ccc1=O)NCCc1ccccc1,inactive: -8.24%,–
O=C(C1CCC1)N1CCc2cc(S(=O)(=O)NCCc3ccccc3)ccc21,–,inactive
Cc1nn(-c2ccc(N3CCCC3)nn2)c(C)c1CCC(=O)N1CCN(c2ccccc2F)CC1,–,inactive
COCCn1c(C)cc(O)c(C(c2ccc(F)cc2)N2CCC(C)CC2)c1=O (configuration not stated),inactive: 5.03%,–
COc1ccc(-n2nc3c(N4CCCC(C(=O)NCCc5ccccc5C)C4)nnc(C)c3c2C)cc1 (configuration not stated),inactive: -24.2%,–
COc1ccc(-n2c(=O)c3ccc(C(=O)NCc4ccc(C)cc4)cc3n(Cc3ccc(Cl)cc3)c2=O)cc1,inactive: 5.85%,–
CCOc1ccccc1NC(=O)Cn1c(=O)n(C(C)C)c(=O)c2oc3ccccc3c21,–,inactive
Cc1cccc(CSc2ncccc2C(=O)O)c1,inactive: -4.99%,–
CC1=C(C(=O)OC2CCCC2)C(c2ccccc2C(F)(F)F)CC(=O)N1 (configuration not stated),inactive: -1.77%,–

SMILES,"activity change, negative = inhibition",outcome
O=S(=O)(c1ccc(-c2cnc(C3CC3)o2)cc1)N1CCN(c2ccccc2)CC1,–,inactive
COc1cccc(NC(=O)Cn2c(=O)n(-c3ccccc3)c(=O)c3c2c2cc(OC)ccc2n3C)c1,inactive: -26.2%,–
Cc1ccc(N(CC(=O)Nc2ccc(C)c(Cl)c2)S(=O)(=O)c2cccs2)cc1,–,inactive
Cc1ccc(CNC(=O)CN2N=C(c3ccccc3)CCC2=O)cc1,inactive: 0.71%,–
CC(=O)c1ccc(N2CCN(c3ncnc4c3cnn4-c3cc(Cl)ccc3C)CC2)cc1,inactive: 6.42%,–
Cn1c(C(=O)Nc2ccc(OC(F)(F)F)cc2)cc2c(=O)n3ccccc3nc21,inactive: 0.383%,–
COc1ccccc1CNC(=O)c1nnn(CC(=O)Nc2c(C)cccc2C)c1N,inactive: -9.04%,–
Cc1ccccc1OCC(=O)OCc1cc(=O)n2nc(-c3cccs3)sc2n1,inactive: 1.76%,–
Cc1ccc(OCC(=O)Nc2cccc(C(=O)OCc3cc(=O)n4c(C)csc4n3)c2)cc1,inactive: 14.8%,–
CCOc1ccccc1NC(=O)c1c(NC(=O)Cc2ccc(OC)cc2)sc2c1CCC2,inactive: -8.07%,–
CCc1cccc(NC(=O)c2ccc3c(c2)c(C)c(C)n3Cc2ccc(F)cc2)c1,inactive: 6.95%,–
Cc1ccc(CN2COc3c(Cl)cc4c(-c5ccccc5)cc(=O)oc4c3C2)cc1,inactive: -3.32%,–
CNC(=O)c1ccc2c(C(=Nc3cccc(CN(C)C)c3)c3ccccc3)c(O)[nH]c2c1,inactive: 2.42%,–
Cc1ccc(NC(=O)COc2ccc3oc4c(c3c2)CCCC4)cc1C,inactive: -8.6%,–
O=C(Nc1cc(Cl)cc(Cl)c1)c1ccc(F)c(S(=O)(=O)N2CCN(c3ccccc3F)CC2)c1,inactive: -8.9%,–
Cc1cc(NC(=O)C2CCCN(S(=O)(=O)c3cccc4nsnc34)C2)ccc1Br (configuration not stated),inactive: 5.14%,–
CCOc1ccc(NC(=O)N2CCC(N3CCCCC3)CC2)cc1,inactive: -2.41%,–
COc1cc(-c2nc3ccc(Cl)cn3c2Nc2ccc3c(c2)OCCO3)ccc1O,inactive: -1.76%,–
Cc1cccc(CSc2nnc3[nH]c(=O)cc(-c4ccccc4)n23)c1,inactive: -3.97%,–
O=C(c1ccc2c(c1)N(Cc1ccc(Cl)cc1)C(=O)c1ccccc1S2(=O)=O)N1CCN(c2ccccn2)CC1,–,inactive
COC(=O)C1CCN(c2csc3ccc(Cl)cc3c2=O)CC1,inactive: -7.27%,–
O=C(NCCCO)c1nn(-c2ccc(Cl)cc2)nc1CO,inactive: -2.79%,–
CCC[C@H](N[C@@H](C)C(=O)N1[C@@H]2CCCC[C@H]2C[C@H]1C(=O)O)C(=O)OCC,inactive: -13.5%,–
